Data published in the RNAGym collection of RNA variant scans (doi:10.7554/elife.90254).
The source gives no read counts; variants with many changes may rest on few reads.

B1: LINE1-mini (parent)
chain: GGCAGAGCUCAACACAGCGUGGCAAAGUGGCUGUGGCUAGACUGCC

Variants of: B1
Test: self-cleavage, relative activity (ratio to wild type); higher = more cleavage; in vitro, sequencing; the parent is a self-cleaving ribozyme

| Variant | self-cleavage |
| --- | --- |
| GGCAGAGCUCAACUCAGCGUGGCAAAGUGACUGUGAAUAGACUGCC | 0.1 |
| GGCAGAGCUCAACUCAGCGUGGCAAAGUGGCUGUUGCAUGACUGCC | 0.12 |
| GGCAGAGCUCAACUCAGCAUGACAAAGUGGCUGUGGCUAGACUGCC | 0.71 |
| GGCAGAGCUCAACUUAACGUGGCAAAGUGGCUAUGGCUAGACUGCC | 0.01 |
| GGCAGAGCUCAACUCAGCCUGGCAAAGUCGCUGUGGCUAGACUGCC | 0.13 |
| GGCAGAGCUCAACUAAGCAUGGCAAAGUGGCUGUGGCUAGACUGCC | 0.09 |
| GGCAGAGCUCAACUCAGCGUGCCAAAGCGGCUGUGGCUUGACUGCC | 0.04 |
| GGCAGAGCUCAACUCAACGUGGCAAAGUGGCUGUGGCUAGACUGCU | 0.16 |
| GGCAGAGCUCAACUCAGCGUCGCAGAGUUGCUGUGGCUAGACUGCC | 0.04 |
| GGCAGAGCUCAACUCAGCGUGACAAAGUGGCUGUGGCUAGAUUACC | 0.28 |
| GGCAGAGCUCAACUCUGCGCGGCAAAGUGGCUGUGGCUAGACUGCA | 0.15 |
| GGCAGAGCUCAACUCAGCGUGGCAAAGUGGCUGUUGGUAGACUCCC | 0.03 |
| GGCAGAGCUCAACUCAGCGUGGCAAAGUGGCUGUGACUUGACUGCC | 0.09 |
| GGCAGAGCUCAACUCACCGUGUCAAAGUGGCUGUGGCUAGACUGCC | 0.02 |
| GGCAGAGCUCAACUCAGAGUGGCAAAGUGGCUGUGGUUAGACUGCC | 0.05 |
| GGCAGAGCUCAACUCAGCCUGGAAAAGCGGUUGUGGCUAGACUGCC | 0.05 |
| GGCAGAGCUCAACUCAUCUUGGAAAAGUGGCUUUGGCUAGACUGCG | 0.02 |
| GGCAGAGCUCAACUCAGCGUCGCAAAGUGGCCGUGGCUAGACUGCC | 0.13 |
| GGCAGAGCUCAACUUAGCGUGGCAAAGUGGCUGUGUCUAGACUGCC | 0.07 |

| Variant | self-cleavage |
| --- | --- |
| GGCAGAGCUCAACUCAGCUUGGCAAAGUGGCUGUGGCUAGAUUGCC | 0.15 |
| GGCAGAGCUCAACUCAGCGUGUCAAAGUGGAUGUCGCUAGACUGCC | 0.11 |
| GGCAGAGCUCAACUCAGAGUGUCAAAGUGGCUGUGGCUAGACUGCC | 0.13 |
| GGCAGAGCUCAACUCUGUGUGGCAAAGUGGCUGUUGAUAGACUGCC | 0.02 |
| GGCAGAGCUCAACUCAGCGUGGCAAAGUGGUUGUGGCUAGAAUGCC | 0.01 |
| GGCAGAGCUCAACUCAGCGUGGGGAAGGGGCUGUGGCUAGACUGCA | 0.07 |
| GGCAGAGCUCAACUAAGCGUGGCAAAGUGGCUGAGGCUAGACUGCC | 0.03 |
| GGCAGAGCUCAACUGAGCGUUGCAAAGUCGCUGUGGCUAGACUGCC | 0.13 |
| GGCAGAGCUCAACUCAGCGUGACAAAGUGGCUGUAACUAGACUGCC | 0.01 |
| GGCAGAGCUCAACUCAGCGUGGCAAAGUGGUUGUGGCUAGAAUGCA | 0.01 |
| GGCAGAGCUCAACUCAGUGUGGCAAACUGGCUGUGGCUAGACUGCC | 0.13 |
| GGCAGAGCUCAACUCAGUGUGGCAAAGUGGCUGUGACUAGACUGCC | 0.14 |
| GGCAGAGCUCAACUCAGCGUGGCAAAGUGGCUGUGGCUAGCCUGCA | 0.06 |
| GGCAGAGCUCAACUCAACGUGGCAAAGUAGCUGUGGCUAGACUGCC | 0.07 |
| GGCAGAGCUCAACUCAGCCAGGCAAAGUCGCUGUGGUUAGCCUGCC | 0.02 |
| GGCAGAGCUCAACUCAGCGUCGCAAACUGGCUGUGGCUAGACUGCC | 0.1 |
| GGCAGAGCUCAACUCAGCGUGGCAAAUUGGCUUUGGCUAGACUGCC | 0.07 |
| GGCAGAGCUCAACUCAGCGUGGCACAGUGGCUCUCGCUAGAUUGCC | 0 |
| GGCAGAGCUCAACUCAGCGUGUCAAAGUGGCUGUGGAGAGACUGCC | 0.01 |

| Variant | self-cleavage |
| --- | --- |
| GGCAGAGCUCAACUCAGCGUGGCAAAGUGGCUGUGGCUAUACUUCC | 0.04 |
| GGCAGAGCUCAACUCAGCGUGGCAGAGUGGCUGUGGCUACACUGCC | 0.03 |
| GGCAGAGCUCAACUCAGCUUGGCAAAGUGGCUGUGGCUAGACUCCC | 0.22 |
| GGCAGAGCUCAACUCAGCGUGGCAAAGUGGCUGUGGCUCGACUUCC | 0.07 |
| GGCAGAGCUCAACUCAGCGUGUCAGAGUGGCUGUAGCUAGGCUGCC | 0.02 |
| GGCAGAGCUCAACUCAGCGUGGCAAUGUGGCUGUGGGUAGACUGCC | 0.03 |
| GGCAGAGCUCAACUCAGCGUGGCAAAGUGGCUGUAGCCAGACUGCC | 0 |
| GGCAGAGCUCAACUCAGCGUGGCAAAGUGGCUGUGCCUAUAUUGCC | 0.07 |
| GGCAGAGCUCAACUUAGCGUGCCAAAGUGGCUGUGGCUAGACUGCC | 0.03 |
| GGCAGAGCUCAACUCAGCUUGGCAAAGUGGCUGUUGCUAGACUGCC | 0.03 |
| GGCAGAGCUCAACUCAGUGAGCCAUAGUGGCUCUGGCUAGACUGUC | 0.03 |
| GGCAGAGCUCAACUCAGCGUGGCAACGUGGCUGGGGCUAGACUGCC | 1.25 |
| GGCAGAGCUCAACUCACCGUGGCAAAGUGGCUGGGGAUAGACUGAC | 0.09 |
| GGCAGAGCUCAACUCAGAGUGGCAAAGUGGCGGUGGCUAUACGGCC | 0.01 |
| GGCAGAGCUCAACUCAGCGUAGCAAAGUGGCUGUUGCUAGACUGGC | 0.05 |
| GGCAGAGCUCAACUCAGCGUGGCAAAGUCGCUGUGGAUAGACUGCC | 0.01 |
| GGCAGAGCUCAACUCAGCGUGGCAAAGUGGCUGUGGCUAAAAUGCC | 0.03 |
| GGCAGAGCUCAACUCAGCGUGGCAAAGUUGCAGUGGCUAUACUGCC | 0.01 |
